Consider 34 variants from the RNAGym collection of RNA variant scans (doi:10.1093/nar/gkz1192).

The source gives no read counts; variants with many changes may rest on few reads.

First the molecules themselves.
B1: CPEB3 Ribozyme (parent)
chain: UAACAGGGGGCCACAGCAGAAGCGUUCACGUCGCAGCCCCUGUCAGAUUCUGGUGAAUCUGCGAAUUCUGCUGUAUAUCUC

In this series the parent is B1. The experiment in a line: self-cleavage, relative activity (ratio to wild type); higher = more cleavage; in vitro, sequencing. A digest of the protocol: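 After error-prone PCR and barcoding, CPEB3 ribozyme mutant libraries were transcribed with T7 RNA polymerase at 37°C for 5 hours, then given 15 min with DNase I before an EDTA stop, and they cleaved during both steps. Reverse transcription with template switching preceded Illumina sequencing. Relative activity divides a variant's cleaved/total read fraction by the unmutated ribozyme's. At least 5 reads were required per variant, and three batches were averaged.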
Consider UAACAGGAGGCCACAGCGGAAGCGUUCACGUCGCAGCCCCUGUCAGAUUCUGGUGGAUCUGCGAAUUCUGCUGUAUAUCUC, for which the self-cleavage stood at 0.28.

Take UAACAGGAGGCCACAGCAGGAGCGUUCACGUCGCAGCCUCUGUCAGAUUCAGGUGAAUCUGCGAGUUCUGCUGUAUAUCUC: the self-cleavage was determined as 0.07.

Take UAACAGGAGGCCACGGCAGAUGCGAUCACGUCGCUGCCCCUGUCAGAUUCUGGUGAGUCUGCGAAUUCUGCUGUAUAUCUC: the self-cleavage turned out to be 0.15.

Take UAACAGGAGGCCUCAGCAGAAGCGUUCACGUCGCAGCCCUUGUCAGAUUCUGGUGAAUCUGCGGAUUCUGCUGUAUAUCUC: the self-cleavage was 0.05.

UAACAGGAGGCCACAGCUGAAGCGUUCACGUCGCAGCCCCUGUCAGAUUCUGGUGAAUCUGCAAACUCUGCUGCAUAUCUC: the self-cleavage turned out to be 0.28.

As to UAACAGGAGGCCACAGCAGAGGCGUUCACGCCGCAGCCCCUGUCGGAUUCUGGUGAAUCUGCGAAUUCUGCUGUAUACCUC, the self-cleavage is 0.05.

UAACAGGAGGCCACGGCAGAAGCGUUCACGUCGCAGCCCCUGUCAGAUUCCGGUGAAUCUGCGAGUUCUGCUGUAUAUCUC: the self-cleavage is 0.1.

As for UAACAGGAGGCCACAGCAGAGGCGUUCACGUCGCAGCCCCUGUCAGAUCCCGGGGAAUCUGCGAAUUCUGCUGUAUGUCUC, the self-cleavage is 0.03.

As for UAACAGGAGGCCACCGCAGAAGCGUUCACGUCGCAGCCCCUGUCAGGUUCUGGUGAAUCUGCGAAUUCUGCCGUAUACCUC, the self-cleavage came to 0.05.

On to UAACAGGAGGCCACAGCUGAAGCGUUCACGUCGCAGCCCCUGUCAGAUUCUGGUGAAUCUGCGUAUUCUGCUGUAUAUCUC, for which the self-cleavage stood at 0.26.

For UAACAGGAGGCCACAGCAGGAGCGAUCACGUCGCAGCCCCUGUCAGGUACUGGUGAAUCUGCGAAUUCUGCUGUAUACCUC, the self-cleavage was 0.04.

Consider UAACAGGAGGCCACAGCAGAGGCGUUCACGCCGCAGCCCCUGUCAGAUUCUGGUGAAUCAGCGAAAUCUGCUGUAUAUCUC, for which the self-cleavage was found to be 0.05.

Turning to UAACAGGAGGCCACUGCAGAAGCGUUCGCGUCUCAGCCCCUGUCAGAUUCUGGUGAAUCUGCGAAUUCUGCUGUAUAUCUC, the self-cleavage was found to be 0.07.

UAACAGGAGGCCACAGCAGAGGCGAUCGCGCCGCAGCCCCUGUCAGAUUCUGGUGAAUCUGCGAAUUCUGCAGUAUAUCUC: the self-cleavage came to 0.04.

Regarding UAACAGGAGGCCACGGCAGAAGCGUUCACGUCGCAGCCCCUGUCGGAUUCUGGUGAAUCUGCGUAUUCUGCUGUAUAUCUC, the self-cleavage worked out at 0.17.

With UAACAGGAGGCCACAGCAGGAGCGUUCUCGCCGCAGCCCCUGUCAGAUUUUGGUGAGUCUGCGAAUUCUGCUGUAUAUCUC, the self-cleavage was 0.04.

Take UAACAGGAGGCCACAGCAGUAGCGUUCACGUCGCAGCCCCUGUCAGAUCCCGGUGAAUCUGCGAGUUCUGCUGUAUAUCUC: the self-cleavage was 0.04.

On to UAACAGGAGGCCACAGCAGAGGCGUUCACGUCGCAGCCCCUGUCAGAUUCUUGAGAAUCUGCGAAUUCUGCUGUAUAUCUC, for which the self-cleavage amounted to 0.05.

On to UAACAGGAGGCCUCAGCAGAAGCGUUCACGUCGCAGCCCCUGUCAGAUUCUGGUGGAUCUGCGAAUUCUGCUGUAUAUCUC, for which the self-cleavage is 0.2.

Regarding UAACAGGAGGCCACAGCGGAAGCGUUCACGUCGCAGCCCCUGUAAGAUUCUGGCGAAUCUGCGAAUACUGCUGUAUAACUC, the self-cleavage stood at 0.06.

As for UAACAGGAGGCCACCGCAGAAGCGUUCACGUCGCAGCCCCUGUCAGAUUCCGGUGAAUCUGCGAAUUCUGCUGUAUAUCUC, the self-cleavage came out at 0.08.

For UAACAGGAGGCCACAGCAGGAGCGUUCACGUCGCAGCCCCUGUCAGAUACUGGUGAAUCUGCGAAUCCUGCUGUAUAUCCC, the self-cleavage was found to be 0.07.

As to UAACAGGAGGCCACGGCAGAAGCGUUCACGUCGCAGCCCCCGUCAGAUUCUGGUGAAUCUGCGAAUUCUGCUGUAUAUCUC, the self-cleavage was determined as 0.37.

As for UAACAGGAGGCCACAGCGGUAGCGUUCACGUCGCAGCCACUGUCAGAUUCGGGUGAAUCUGCGAGUUCUGCAGUAUAUCUC, the self-cleavage came out at 0.05.

Consider UAACAGGAGGCCACAGCGGGAGCGUUCACGUCGCAGCCCCUGUCAGAUUCUGGUGAAUCUGCGAAUUCUGCUGUAUAUCUC, for which the self-cleavage turned out to be 0.49.

Turning to UAACAGGAGGCCACUGCAGAAGCGUUCACGUCGCAGCCCCUGUCAGAUUCUGGUGAAUAUGCGAAUUCUGCUCUAUAUCAC, the self-cleavage worked out at 0.04.

As to UAACAGGAGGCCACAGCUGAGGCGUUCACGUCGCAGCCCCUGUCAGAUUCUGGUGAAUCAGCGAAUUCAGCUGUAUAUCUC, the self-cleavage came to 0.04.

As for UAACAGGAGGCCACAGCGGUAGCGUUCACGUCGCAGCCCCUGUCAGAUUCUGGUGAAUCAGCGAAUUCUGCUGUAUAUCUC, the self-cleavage was determined as 0.05.

As for UAACAGGAGGCCACAGCCGAAGCGUUCACGUCGCAGCCCCUGUCAGAUUCUGGUGAAUCUGCGAAUUCCGCUGUAUAACUC, the self-cleavage worked out at 0.03.

With UAACAGGAGGCCACUGCAGAGGCGUUCACGCCGCAGCCCCUGUCAGAUCCUGGUGAAUCUGCGAAUUCUGCUGUAUAUCUC, the self-cleavage is 0.19.

For the variant UAACAGGAGGCCACGGCAGAAGCGUUCACGUCGCAGCCCCUGCCAGAUUCUGGUGAAUCUGCGAAUUCUGCUGAAUAUCUC, the self-cleavage is 0.09.

As for UAACAGGAGGCCUCAGCAGAAGCGUUCACGUCGCAGCCACUGUCAGAUUCUGGUGAAUCUGCGAACUCUGCUGUAUGUCUC, the self-cleavage amounted to 0.05.

Turning to UAACAGGAGGCCACAGCAGGAGCGUUCACGUCGCAGCCCCUGUCAGACUCUGGUGAUUCUGCGAAUUCUGCUGUAUAUCUC, the self-cleavage turned out to be 0.07.

As for UAACAGGAGGCCACAGCGGAAGCGUACACGUCGCAGCCCCAGUCAGACUCUGGUGAAUCUGCGAAUUCUGCUGUAUACCAC, the self-cleavage is 0.29.
